± gives the standard deviation of the averaged measurements. The list shows a part of the results.
Each sequence was assayed on PfAP2-LT AP2 domain (GST-tagged) (assay: gcPBM binding intensity (ln(normalized median fluorescence intensity)); higher = stronger DNA binding).
How it was run: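 Plasmodium falciparum DNA-binding domains carrying a GST tag were expressed in E. coli and applied for 1 h, at about 25 μg on average, to an Agilent 4 × 180k array. The array held primer-extended double-stranded 36-bp intergenic genomic probes together with negative controls, and binding took place in 1× PBS with 1% milk, 0.2 mg/ml BSA, 0.5% salmon testes DNA and 0.03% Triton X-100. An Alexa488 anti-GST antibody detected bound protein, and the array was scanned at 488 nm. Binding intensity is taken as the highest Masliner-normalised natural-log median intensity across replicate spots of either probe orientation.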

Sequence | gcPBM binding intensity (ln)
TCCCTAAAAAATGATAAATGGAGACAATTCCGACAA [GTGCAC_negctrl_site209] | 8.62 ± 0.28
TTATATATATTTAAATTTTATCTCACATATATATAT [TGCATGCA_negctrl_site275] | 8.89 ± 0.43
ATGGATAACAATATGTGTACACATTTATATCTCCAC [XGTACX_site5457] | 9.12 ± 0.31
AAGCATGGATATTTTACACACATTTCCACGTAACAA [CACACA_site3141] | 9.08 ± 0.27
ATACATTTTTTTTATACGCACACGTCATACTTTTAA [CACACA_site1638] | 9.35 ± 0.49
ATATAATAGAAGTGTACACACATATTTATGTCTGTA [CACACA_site3121] | 9.15 ± 0.36
ACAAGACAGATATATACACACATACATACATACATA [CACACA_site7472] | 9.43 ± 0.37
ATATTTATTTATATTACACACATGTGCAATTAAACT [CACACA_site6928] | 9.28 ± 0.47
TTTAACTTATTCAATGCACACATTTTAATAAGATAT [CACACA_site1967] | 8.76 ± 0.3
TTTCTTAAAAAAAAAAAAAAAAGAAGATAAATAAAA [CACACA_negctrl_site289] | 8.05 ± 0.6
CTAGCAAATACATACACACACACACCGATACATATA [CACACA_site9164] | 9.87 ± 0.21
ACATAATATATATATTAACACACATCCTTTTATGTA [CACACA_site8317] | 9.06 ± 0.4
TGACTTTGTTGAATTTGTCCTCTTAACTCATAATAT [GTGCAC_negctrl_site217] | 8.54 ± 0.53
TTCTGTGTCTAAAAATGTACGGGAATATATAAAAGT [XGTACX_site2090] | 8.72 ± 0.43
TTTTTTTTTTTTAAATGTACTTATCAACTTTTATAT [XGTACX_site4641] | 8.6 ± 0.45
TTATTTTGTTTATTATGTACACAAAGACATAATAAT [XGTACX_site5648] | 8.41 ± 0.38
CACTTACATAATTATTGTACAGATATTATCAAATAA [XGTACX_site567] | 8.54 ± 0.37
ACTTATATTATAAATTGTACAAATATTATATTTGGT [XGTACX_site1424] | 8.83 ± 0.47
AATATATGTAAATGGACACACACATATATATATATA [CACACA_site9220] | 9.92 ± 0.014
AATAAAATAATCCAAGTGCATATGTAAAAATACATT [GTGCAC_site9576] | 8.81 ± 0.43
TACGTAAAAATAATACGTACATATATTTATAGAAAA [XGTACX_site4959] | 8.62 ± 0.45
ACGGACAATACGGAAACACACAAGTTATTTTATCAT [CACACA_site7310] | 9.04 ± 0.56

Sequence | gcPBM binding intensity (ln)
AAAAAAAAAAGACACACACACACACGCATATACATA [CACACA_site7289] | 10.18 ± 0.05
GAAATACCGGAAAGCAAACACACATTTTAAAACCAT [CACACA_site3861] | 9.26 ± 0.52
ATATTTTTTGGAAAGTGTACAATATTATATATTAAA [XGTACX_site2163] | 8.35 ± 0.48
AACCATGTTAACAATGCATGCATCACTATATAAACG [TGCATGCA_site421] | 9.12 ± 0.38
ATACATATATATAGGTGTACATATAATATATATATA [XGTACX_site2228] | 9.01 ± 0.39
TTTAATTTTACATGAGAAACATATTACAATAAAATA [GTGCAC_negctrl_site606] | 8.2 ± 0.37
CATATAAAAAAATAGACACACATTTTATATAATACG [CACACA_site1896] | 8.91 ± 0.44
TCAAGTATTAAAATGGGTACATAAATATGTGTATAT [XGTACX_site5884] | 8.79 ± 0.47
CTTTTTAAATTAAAATGTACAGAAAAATATTATTAT [XGTACX_site8760] | 8.22 ± 0.41
TATTTTTCTTTTTTTTTTTTTTTTATATTATACGTG [XGTACX_negctrl_site363] | 8.54 ± 0.56
ATCATATGTATGCATACACACAAAAAGTTATTTATA [CACACA_site6325] | 9.11 ± 0.3
GAAAATCAGTTAAACACACACATAAAAAAAAAAAAA [CACACA_site2875] | 9.31 ± 0.59
ATATATACTATATTTTAACACACAAAAAAAAAAAAT [CACACA_site8277] | 8.86 ± 0.48
CTCAATATTATTACTACACACAAATTAATATTTTCC [CACACA_site55] | 8.85 ± 0.48
CTTTTTTCAAGACACACACACAAGAAAATATAAATA [CACACA_site7455] | 9.36 ± 0.46
TGTTAATTGAATGCAATCTGAATTTTTTTACATAAT [CACACA_negctrl_site1002] | 8.5 ± 0.45
TATTTGTAAATCGATACACACATATATCTTAATATA [CACACA_site4273] | 8.8 ± 0.32
CGGCACGTGATATATACACACATATAGATATATACA [CACACA_site6408] | 9.27 ± 0.47
TGGATAATGAATGATGCACACTAAAAATATTCTACA [CACACA_site5912] | 9.02 ± 0.47
AATTTTATACGATAAACATGCAAATAAATAAATAAA [TGCATGCA_site227] | 8.62 ± 0.53
AAAGAAAAAAAAAACACACACACACCCATTCAATAT [CACACA_site38] | 10.29 ± 0.035
TTTATTATATAAACATGTACACAATTTGGTATATTC [XGTACX_site3112] | 8.79 ± 0.47
